Laboratory results published in the RNAGym collection of RNA variant scans (doi:10.7554/elife.90254).
The source gives no read counts; variants with many changes may rest on few reads.

B1: LINE1-mini (parent)
chain: GGCAGAGCUCAACACAGCGUGGCAAAGUGGCUGUGGCUAGACUGCC

Variants of: B1
Experiment: self-cleavage, relative activity (ratio to wild type); higher = more cleavage; in vitro, sequencing; the parent is a self-cleaving ribozyme

Row | Variant | self-cleavage
1 | U9G C13A G19C | 0
2 | C3G C8G A16G C23G U32A G33C G35C | 0.01
3 | U9A G29C G36A | 0.03
4 | G2A C10A U34A | 0.05
5 | C8G G27U A39G | 0.02
6 | A12C G17C G19C | 0.01
7 | C8A A14U G19C G30C G35C G40A | 0.25
8 | G27U C31A U34A | 0.03
9 | G1U C3U A12U C18A | 0.14
10 | C3U G21A G35U G44A | 0.08
11 | G2A A12C G27A | 0.03
12 | G27U C42G C46U | 0.04
13 | A11U G29U G30A | 0.19
14 | U9G A12C G33A U38A A41G | 0.01
15 | A6C C10G C23A C31U A39G C46A | 0.01
16 | C23A A25G C46G | 2.72
17 | C23U A25U G35C C45U | 0.31
18 | C10A C18G U32G C46U | 0.16
19 | G27U U28G A39G G44C | 0.01
20 | A6C A26C G30C G33C C46U | 0.05
21 | G2A A26C A39U | 1.83
22 | A14C C18U G29U | 0.06
23 | G1C A14G C18A G21C | 0.01
24 | G1A A6C C13A A41G | 0.29

Row | Variant | self-cleavage
25 | C3G A6U A24U G44U | 0.37
26 | G5A C8G G17U G19U G40C C42U | 0.02
27 | C15G C23A U28G | 0.06
28 | G2C C13G C31G G40A | 0.03
29 | G17A U43A C46A | 0.01
30 | U9G G40C G44U | 0.02
31 | A11C G19A A41C | 0.04
32 | U28A G35A G40U | 0.1
33 | G27C C31U C45U | 0.05
34 | A4G G5A G22C U32A C46A | 0.01
35 | A26G C37A C42A | 0.09
36 | A11U G21A C45G | 0.21
37 | G2U G5A C8A G17A C18A | 0.06
38 | A12U G22C G40A | 0.07
39 | A14U G17U G44U | 0.02
40 | C10U G35A C37A | 0.02
41 | A26G A41G C42U U43A | 0.07
42 | A12G A16U C23U A26C | 0
43 | G5U A6U A16U U34C | 0.08
44 | C23U G29C U34G A39G | 0.02
45 | C18A G21C A39G | 0.03
46 | G21A A25C U32G G36A | 0.03
47 | G7C U9A A12C C23A | 0.02
48 | G1C A14U C23U C31A | 0.02

Row | Variant | self-cleavage
49 | A6C U28A A41C | 0.05
50 | A14C G22U A24C G36U | 0.01
51 | C8U C10A A26U | 0.01
52 | C8A A12U U20A C31G | 0.23
53 | C3A C8G G22A G40A | 0.25
54 | G2U C3U A6G C10A C42G U43G | 0
55 | C3U G30U C31U U34G | 0
56 | G2A G33C G40C | 0.06
57 | A26G G30U G40C U43A C46G | 0.03
58 | A12U A24C G29U | 0.22
59 | G5C A16U G21U G27U C31A | 0.02
60 | C8G C10U A25U A39C U43C C46U | 0.02
61 | G1U U20C A25U A41U | 0.34
62 | G1A A4G G40U | 0.11
63 | C15A G17U C23A U34G | 0.03
64 | A11G U20G G33U U43G | 0.1
65 | C3A A16U C42U | 0.11
66 | A12U G19A G27U | 0.1
67 | C18A G35A A39U C45U | 0.02
68 | U9A G19U G40C | 0.04
69 | U38A C42U U43C | 0.09
70 | C8U A26U G35U | 0.05
71 | A4G A16C C31U | 0.07
72 | C3U G27A G36A A39C | 0.05

Row | Variant | self-cleavage
73 | G5A C10A A14G G19C | 0.02
74 | U9G C13A G17U G27C G33A G35U A39U | 0.04
75 | U9A C18G U38G U43A C46U | 0.06
76 | G1U G30C G36U G40C | 0.13
77 | C10A G17C G19C U32G G35A | 0.01
78 | G22U G30A A41U | 1.24
79 | U9A A16U G19U G27U U28C G33U | 0.22
80 | C10U A41U C46A | 0.05
81 | G1U A16U U34G | 0.01
82 | G5A U20A G27C U34G G36U | 0.05
83 | G2C C3G C18A G40C | 0.07
84 | A24C G36A U38A G40A C46U | 0.11
85 | C18U U34G C42U C46U | 0.01
86 | G1C G30A C42A G44C | 0.03
87 | G21C C23G G27C C46U | 2.06
88 | G5C A6G U9G G33A U43C C45U | 0.01
89 | A4U U9G C15A A16G | 0.2
90 | A6C G19U G22C | 0.27
91 | C8A C42A G44A | 0.38
92 | G5U C8A C13G C23A C42U | 0.13
93 | C10A C15A A41C C42G U43G | 0.02
94 | G2C G5A C10A A26C | 0.02
95 | G1C G40A C46A | 0
96 | C37G A39C G44U | 0.04

Row | Variant | self-cleavage
97 | A6U A11U C18A G19C G29A C42G | 0
98 | G1C C18U C23A | 0.16
99 | A24C U32A A39U A41U C42G | 0.02
100 | C10A A11G A16C A39U | 0
101 | G7U C37A C46A | 0.04
102 | G5A A12C A14G C15G C31A U38A | 0.1
103 | C10U U20A C23U G35C | 0.01
104 | A25G G36U C37U | 0.02
105 | C13A A16G G21A C23A C31A | 0.04
106 | U9A A12U A16U C18U G22A U28C C31A | 0.01
107 | C13A G27U G36A | 0.09
108 | U9A C15U G35U | 0.3
109 | G17U G22A A39G | 0.04
110 | C3A G7U G36A U43A | 0.05
111 | G1U C8G A24C G33A C42A | 0.03
112 | A25C G27A A39U G40A | 0.03
113 | A4U C23A G29A | 0.61
114 | C15U G33C C37U C46U | 0.02
115 | U9G C15A G21U G30U C31G U34C C45G | 0.01
116 | A11C A12U G21A G29A C42U C46A | 0.02
117 | G7U G19U U32C | 0.01
118 | C3U C13G G33U | 0.05
119 | A4C A12C A24C | 0.02
120 | G27U C42U C46A | 0.09

Row | Variant | self-cleavage
121 | C10A G19C G21U | 0
122 | A16U G29U C31A | 0.05
123 | G2A C3A A6C C10G G17U C37G | 0.08
124 | A14U C23U C42U U43A | 0.05
125 | C8A G17U C37U U38C | 0.03
126 | G17A A26G G27U | 0.06
127 | G5U G19C G33A | 0.01
128 | C13U A16C C31A | 0.05
129 | G2C A14G G19C G44U | 0.03
130 | C8U C15U G27U G30U A39C A41U | 0.16
131 | G2A A6G C8G C18G | 0.05
132 | C13U G19C G33C | 0.02
133 | G1C A4U G17C G33U U34G | 0.01
134 | C8A A25G G29U C31G | 0.12
135 | G22U G40A C46G | 0.22
136 | G5U C10G A39C | 0.04
137 | G5C A12U C31A G35U C46A | 0.02
138 | G21C G22U A26C | 0.17
139 | G7A A39U A41U | 0.34
140 | G2A A25G U32A C42U G44U | 0.09
141 | A11G C13U A24U G30A | 0.04
142 | A11U G21U G30A U32G | 0.02
143 | A4G C10A A14U A16U C18A | 0.02
144 | A11G G19U U34A | 0.03

Row | Variant | self-cleavage
145 | C8G A11G A26U G40U C42U | 0
146 | G1U U9G C18G G21U A24G U43A | 0
147 | C10G C15G C42U | 0.04
148 | A4C G5U C13G A24U U28A G30U U34G | 0.01
149 | U9G A11G C13U U20C G27U | 0
150 | G2A C8G G29U | 0.08
151 | C23G A24U G36A | 0.21
152 | C15U A24U G29C C31G A41G | 0.17
153 | U20G U32A G40U | 0
154 | A6U A14U C18A C31G U34A G36U C46G | 0
155 | A14C A24U U32C U34C C37U A39G C45A | 0.01
156 | G5A A6G U32C G40C | 0.02
157 | C10U A25G A39G U43A C46A | 0.03
158 | G17A G22U G27C | 1.17
159 | A11C G36A C42G | 0.01
160 | A11U C13G G21U | 0.01
161 | G19C G27U C42U | 0.05
162 | G1U A6G G29U | 0.06
163 | G1A G2C C10U A11G A14G G33C | 0.01
164 | C3U U9G A11C G33A G36C C37G G44C | 0
165 | G2C G21U C23G | 0.06
166 | G7A G29A C42G | 0
167 | A24U A26G C31U C45A | 0.02
